Test results published in the antibiotic and cytotoxicity screens of Wong et al. (2023).
This is one part of the list.

What follows are compounds tested on HepG2 (assay: cytotoxicity call (relative viability < 0.9)). Details: 10 µM.
With `CC[C@H]1OC[C@@H]2CN(C(=O)CN(C)C)CC[C@H]21` the cytotoxicity call was “inactive”.
For `C[C@H](CO)N1C[C@H](C)[C@@H](CN(C)Cc2ccc(-c3ccccc3)cc2)Oc2c(NC(=O)C3CCCCC3)cccc2C1=O`, the cytotoxicity call was “inactive”.
`C[C@@H]1CN([C@@H](C)CO)C(=O)c2c(c3ccccc3n2C)-c2ccccc2CO[C@@H]1CN(C)C(=O)c1ccc(F)cc1` was tested, and the cytotoxicity call was “inactive”.
`C[C@H]1CN([C@@H](C)CO)S(=O)(=O)c2ccc(Br)cc2O[C@H]1CN(C)Cc1ccc(F)cc1` was tested, and the cytotoxicity call was “inactive”.
`O=C(NO)c1ccc(-c2cn(CC(=O)N3CCOCC3)nn2)cc1` was tested, and the cytotoxicity call was “inactive”.
For `C[C@@H]1CCCCO[C@@H](CN(C)S(=O)(=O)c2ccc(Cl)cc2)[C@@H](C)CN([C@H](C)CO)C(=O)c2cc(NC(=O)C3CCCCC3)ccc2O1`, the cytotoxicity call was “inactive”.
With `C[C@H]1CN([C@@H](C)CO)C(=O)Cc2cc(NC(=O)Nc3ccc4c(c3)OCO4)ccc2O[C@@H]1CN(C)S(=O)(=O)c1cn(C)cn1` the cytotoxicity call was “inactive”.
In the case of `C[C@@H]1CCCCO[C@H](CN(C)C(=O)Nc2ccc3c(c2)OCO3)[C@@H](C)CN([C@H](C)CO)C(=O)c2cc(NC(=O)Nc3ccc(F)cc3)ccc2O1`, the cytotoxicity call is reported as “inactive”.
For `C[C@H]1CN([C@@H](C)CO)C(=O)c2cc(NC(=O)c3ccncc3)ccc2O[C@H]1CN(C)S(=O)(=O)c1cccs1`, the cytotoxicity call was “inactive”.
With `O=C(C[C@@H]1CC[C@@H]2[C@H](COC[C@H](O)CN2S(=O)(=O)c2ccc(F)cc2)O1)NCc1ccncn1` the cytotoxicity call was “inactive”.
With `Cc1cc(C(=O)Nc2cccc3c2O[C@H](CN(C)S(=O)(=O)c2ccccc2)[C@@H](C)CN([C@@H](C)CO)C3=O)n(C)n1` the cytotoxicity call was “inactive”.
For `COc1ccc(S(=O)(=O)N(C)C[C@@H]2Oc3c(NS(=O)(=O)c4ccccc4)cccc3C(=O)N([C@H](C)CO)C[C@@H]2C)cc1`, the cytotoxicity call was “inactive”.
In the case of `O=C(/C=C/c1ccc(O)cc1)[C@H]1C(=O)[C@H]([C@@H]2O[C@H](CO)[C@@H](O)[C@H](O)[C@H]2O)C(=O)[C@@](O)([C@@H]2O[C@H](CO)[C@@H](O)[C@H](O)[C@H]2O)C1=O`, the cytotoxicity call is reported as “inactive”.
`COc1ccc(CN(C)C[C@H]2Oc3c(NS(C)(=O)=O)cccc3C(=O)N([C@H](C)CO)C[C@@H]2C)cc1` was tested, and the cytotoxicity call was “inactive”.
In the case of `CC(C)(C)OC(=O)N1CC(C(=O)O)C1`, the cytotoxicity call is reported as “inactive”.
In the case of `C[C@H]1CN([C@@H](C)CO)C(=O)c2cc(NC(=O)Cc3ccccc3)ccc2O[C@H]1CN(C)Cc1ccc(Cl)c(Cl)c1`, the cytotoxicity call is reported as “inactive”.
`C[C@@H]1CN([C@@H](C)CO)C(=O)c2cc(NC(=O)c3ccncc3)ccc2O[C@@H]1CN(C)Cc1ccc(Oc2ccccc2)cc1` was tested, and the cytotoxicity call was “inactive”.
`C[C@@H]1CN([C@@H](C)CO)C(=O)c2cc(NC(=O)Nc3ccc(F)cc3)ccc2O[C@@H](C)CCCCO[C@@H]1CN(C)Cc1ccc(C(=O)O)cc1` was tested, and the cytotoxicity call was “inactive”.
For `C[C@@H]1CCCCO[C@H](CN(C)CC2CCCCC2)[C@H](C)CN([C@H](C)CO)C(=O)c2cc(NC(=O)C3CCCCC3)ccc2O1`, the cytotoxicity call was “inactive”.
With `Cc1noc(C)c1NC(=O)N(C)C[C@H]1Oc2ccc(NC(=O)CCN3CCOCC3)cc2C(=O)N([C@@H](C)CO)C[C@@H]1C` the cytotoxicity call was “inactive”.
For `C[C@@H]1CN([C@@H](C)CO)C(=O)Cc2cc(NC(=O)Nc3cccc4ccccc34)ccc2O[C@H]1CN(C)Cc1ccc(C(=O)O)cc1`, the cytotoxicity call was “inactive”.
For `C[C@@H]1CN([C@H](C)CO)C(=O)c2cccc(NC(=O)C3CC3)c2O[C@H]1CN(C)Cc1ccc(-c2ccccc2)cc1`, the cytotoxicity call was “inactive”.
`CC(C)CC#Cc1ccc2c(c1)O[C@H](CN(C)C(=O)c1cnccn1)[C@H](C)CN([C@H](C)CO)S2(=O)=O` was tested, and the cytotoxicity call was “inactive”.
With `C[C@H](CO)N1C[C@H](C)[C@H](CN(C)C(=O)c2cnccn2)Oc2cc(C#CCC3CCCC3)ccc2S1(=O)=O` the cytotoxicity call was “inactive”.
In the case of `C[C@@H]1CN([C@H](C)CO)C(=O)c2cccc(NS(C)(=O)=O)c2O[C@H]1CN(C)C(=O)Nc1ccc(C(F)(F)F)cc1`, the cytotoxicity call is reported as “inactive”.
For `Cc1nn(C)cc1NC(=O)C[C@@H]1CC[C@H]2[C@@H](COc3ccc(NC(=O)C4CCOCC4)cc3C(=O)N2C)O1`, the cytotoxicity call was “inactive”.
In the case of `CN(C)c1cc[n+](C(=O)N2CCOCC2)cc1`, the cytotoxicity call is reported as “inactive”.
In the case of `C[C@@H]1CN([C@@H](C)CO)C(=O)c2cccc(NC(=O)Nc3ccc(F)cc3)c2O[C@@H]1CN(C)S(C)(=O)=O`, the cytotoxicity call is reported as “inactive”.
`C[C@@H]1CN([C@@H](C)CO)C(=O)c2cc(NC(=O)c3ccncc3)ccc2O[C@@H](C)CCCCO[C@H]1CN(C)C(=O)C1CCCCC1` was tested, and the cytotoxicity call was “inactive”.
With `C[C@H]1CN([C@@H](C)CO)C(=O)c2cccc(NC(=O)c3nc4ccccc4s3)c2O[C@@H]1CN(C)Cc1ccc(-c2ccccc2)cc1` the cytotoxicity call was “inactive”.
For `COc1ccc(S(=O)(=O)Nc2ccc3c(c2)C(=O)N([C@H](C)CO)C[C@H](C)[C@@H](CN(C)Cc2ccncc2)O3)cc1`, the cytotoxicity call was “inactive”.
`C[C@@H]1CN([C@@H](C)CO)C(=O)Cc2cc(NC(=O)CCN3CCOCC3)ccc2O[C@@H]1CN(C)S(=O)(=O)c1ccc(Cl)cc1` was tested, and the cytotoxicity call was “inactive”.
With `Cc1cncc2cccc(S(=O)(=O)NCCN(C/C=C/c3ccc(Br)cc3)C/C=C/c3ccc(Br)cc3)c12` the cytotoxicity call was “inactive”.
With `C[C@@H]1CN([C@H](C)CO)C(=O)c2cc(NC(=O)C3CCCCC3)ccc2O[C@@H](C)CCCCO[C@H]1CN(C)C(=O)Cc1ccccc1` the cytotoxicity call was “inactive”.
With `Oc1ccccc1CNc1ccc(C2CCCCC2)cc1` the cytotoxicity call was “inactive”.
In the case of `O=C(C[C@@H]1CC[C@H]2[C@@H](COC[C@H](O)CN2C(=O)Nc2ccc(Cl)cc2)O1)NC1Cc2ccccc2C1`, the cytotoxicity call is reported as “inactive”.
With `Cc1noc(C)c1S(=O)(=O)N(C)C[C@H]1OCCCC[C@H](C)Oc2ccc(N(C)C)cc2C(=O)N([C@@H](C)CO)C[C@@H]1C` the cytotoxicity call was “inactive”.
In the case of `COc1cccc(C#Cc2ccc3c(c2)O[C@H](CN(C)S(=O)(=O)c2ccccc2F)[C@@H](C)CN([C@H](C)CO)S3(=O)=O)c1`, the cytotoxicity call is reported as “inactive”.
For `COc1ccc(S(=O)(=O)N(C)C[C@H]2Oc3cc(C4=CCCC4)ccc3S(=O)(=O)N([C@@H](C)CO)C[C@H]2C)cc1`, the cytotoxicity call was “inactive”.
`COc1cccc(S(=O)(=O)N(C)C[C@@H]2Oc3cc(C#CCC(C)C)ccc3S(=O)(=O)N([C@H](C)CO)C[C@H]2C)c1` was tested, and the cytotoxicity call was “inactive”.
